Measured values taken from patent US20040053999A1, “Novel compounds and methods for synthesis and therapy” (priority 1997, published 2004).
Like-named read-outs stand apart in the source and are kept apart here. Marks after values point to notes of the source that are not given here.

System: Influenza A/NWS/33 (H1N1)
Type: in vivo, mice
Conditions: for Mean Lung Parameters: Weight / Mean Lung Parameters: Score / Mean Lung Parameters: Weight (mg): p.o. bid x 5 days, day 6; for Mean Lung Parameters: Score: scale 0-4

Structure (SMILES) | Reducing mortality in influenza-infected mice (oral or i.p. administration, practical therapeutic doses) | Mean Lung Parameters: Weight (10 mg/kg/day) [mg] | Mean Lung Parameters: Score (10 mg/kg/day) | Mean Lung Parameters: Weight (mg) (50 mg/kg/day) | Mean Lung Parameters: Score (50 mg/kg/day) | Mean Lung Parameters: Weight (mg) (250 mg/kg/day) | Mean Lung Parameters: Score (250 mg/kg/day) | Mean Lung Parameters: Weight (mg) (32 mg/kg/day) | Mean Lung Parameters: Score (32 mg/kg/day) | Mean Lung Parameters: Weight (mg) (100 mg/kg/day) | Mean Lung Parameters: Score (100 mg/kg/day)
CC(=O)N[C@H]1[C@H]([C@H](O)[C@H](O)CO)OC(C(=O)O)=C[C@@H]1N=C(N)N [GG167, 4-guanidino-2,4-dideoxy-2,3-dehydro-N-acetylneuraminic acid] | effective | 250 | 1.5* | 187* mg | 1.5* | 163** mg | 0.3** | – | – | – | –
NC(=O)c1ncn([C@@H]2O[C@H](CO)[C@@H](O)[C@H]2O)n1 [Ribavirin, ribavirin] | – | 267 | 2.2 | – | – | – | – | 163** mg | 0.8** | 140** mg | 0.3**
